This passage reports binding signal results from publication PMC12136788.

The chains are these.
B1: ENSG00000107863:be:win_3151|CDS|ENSG00000107863|bound_else_gene|NA|bound_elsewhere_windowed (ssRNA)
RNA: GGGAGUUCUACAGUCCGACGAUCAGGGAUCUAAUUAGUCGAAGAAUAAAAGAAUACAACAAUCUGAUGAGCAAAGCAGAACAGUUGCCAAAAACACCUCGCCAGAGUCUCAGCAUCAGGCAAACUUUGCUUGGUGCUAAAUCACAACAGAGGAUUGAGCAUCA
B2: chr6:106663037:106663138:+|CDS|ENSG00000130348|msi1|FALSE|unique (ssRNA)
RNA: GGGAGUUCUACAGUCCGACGAUCAGCACAGAAAGUGAGACGCCUCAUUGCUAAUGACUUUGUAAAUGCUUUUAACUCUGGAGUAGAUGUCUUGCUAACUCCCACCACCUUGAGUGAGGCAGUACCAUACUUGGAGUUCAUCAACAACAGAGGAUUGAGCAUCA
B3: chr7:44121865:44121972:-|CDS|ENSG00000106628|unk|total|mutant (ssRNA)
RNA: GGGAGUUCUACAGUCCGACGAUCGUGCCAGUGGCAACCUACACCAACUCCUCACAACCCUUCCGGCCCGGAGAGCGCAGCUUCCGCCGGCAGUAUGCCCACAUUUAUGCCACCCGCCUCAUCCAAAUGAGACCCUUCCUGGAGCAACAGAGGAUUGAGCAUCA
B4: chr8:93922960:93923061:+|CDS|ENSG00000164951|msi1|total|mutant (ssRNA)
RNA: GGGAGUUCUACAGUCCGACGAUCCGGCUCAUGGUCAGCAGUCACGCUGUCUAAUGACCACAAUGCUCAAAAUGAAAGAGAACCCGAACGGCUGAAAUUGGAACAUCCAAAGAGUGAGGCCAAGAGUGUCGUGAAACAGGAUCGCAACAGAGGAUUGAGCAUCA
B5: chr15:50499066:50499164:+|CDS_3pUTR|ENSG00000138592|msi1_unk|total|mutant (ssRNA)
RNA: GGGAGUUCUACAGUCCGACGAUCUACUUCAUUGGGACCACGAGUAACUGAUGCCGCCACAUAAGGAGACACCGGUUAUAAACCCGUUAUCUUUUAAAAGGCUCAGCAACACAACUCUUGAAAUGCUUAUCAGGAUAAUGGCCGCAACAGAGGAUUGAGCAUCA
B6: chr1:213241816:213241921:+|CDS|ENSG00000136643|unk|total|mutant (ssRNA)
RNA: GGGAGUUCUACAGUCCGACGAUCGAGAAACACUAUGCACAGGAGGAUCCCAGGAUGUUAUUUGCCGCAGCUGUUGAUCACCGCCGUUCAGGAGAUAUGUCUUUGUUACCCAGCUCAGAUCCUAAGUUUCAAGGACUUGGAGUGCAACAGAGGAUUGAGCAUCA
B7: chr13:19993219:19993350:+|CDS|ENSG00000121741|unk|FALSE|unique (ssRNA)
RNA: GGGAGUUCUACAGUCCGACGAUCUGAUGAUGAUGUUGUUUUUAUCGAACCUGUACAACCUCCCCCACCUUCUGUACCAGUGGUAGCUGAUCAAAGAACCAUAACAUUUACAUCAUCAAAAAAUGAAGAACUACAAGGAAAUGACAACAGAGGAUUGAGCAUCA
B8: chr11:111497102:111497409:-|CDS|ENSG00000137707|control|control|control (ssRNA)
RNA: GGGAGUUCUACAGUCCGACGAUCGCCGUUAGUAGAGCCUCAUCAGACGUUUCCUCUGGCACUUCCUGCGAUGAAGAAAGUUGUAGCAAGGAACCUCGUGUCAUUCCUAAAGUCAGCAAUCCGAAGAGUAUUUAUCAGGUCAAGCAACAGAGGAUUGAGCAUCA
B9: chr6:89084018:89084151:+|CDS|ENSG00000146278|unk|total|mutant (ssRNA)
RNA: GGGAGUUCUACAGUCCGACGAUCACUGAAGUGAGCCAAAAGGAAAAUUAUGCUGGGGCAAAGUUCCGUGAUCCACCUUCUCCCCGUGUUCUUCCAAAGCCUCCCCGUCACUGGAUGGGAAGCACUGUUGAAAAUUCCAACCAACAACAGAGGAUUGAGCAUCA
B10: chr20:45898604:45898705:+|3pUTR|ENSG00000064601|unk|FALSE|unique (ssRNA)
RNA: GGGAGUUCUACAGUCCGACGAUCAGAGCCCUGUACAUCCCAGACUGGGCCCAGGGUCUCCCAUAGACAGCCUGGGGGCAAGUUAGCACUUUAUUCCCGCAGCAGUUCCUGAAUGGGGUGGCCUGGCCCCUUCUCUGCUUAAAGCAACAGAGGAUUGAGCAUCA
B11: chr6:106663037:106663138:+|CDS|ENSG00000130348|msi1|total|mutant (ssRNA)
RNA: B2 RNA with U83C, A84C
B12: chr10:128098466:128098636:-|3pUTR|ENSG00000148773|msi1|total|mutant (ssRNA)
RNA: GGGAGUUCUACAGUCCGACGAUCUCCUUUCCUUUCUGAAAAUAAAGUUUUGUGCUUUGGAGAAUGACUCGUGAGCACAUCUUCCGGGACCAAGAGUGACUUUCUGUAAGGAGUGACUCGUGGCUUGCCUUGGUCUCUUGGGAACAACAGAGGAUUGAGCAUCA
B13: chr2:20282997:20283108:-|CDS|ENSG00000055917|unk|total|mutant (ssRNA)
RNA: GGGAGUUCUACAGUCCGACGAUCACUAAUCUGCAAUCUAAUUCAUUUUAUGGAAGCAGUUCUUUGACUAACCGCUCCCAGAGCCGUUCUUUAUUUUCUCAUGGACCUGGUCAACCUGGAAGUACAUCUCUUGGCUUUGGAAGUCAACAGAGGAUUGAGCAUCA
B14: chr9:96818597:96818698:-|CDS|ENSG00000196597|unk|total|mutant (ssRNA)
RNA: GGGAGUUCUACAGUCCGACGAUCGGAGAAACCAUUCGAAUGUCAUGAAUGUGGGAAAUCUUUUAACUAUAAGUCAAUCCUCACCGUGCAUCAGAGAACUCACACAGGGGAGAAACCUUUUGAAUGUAAUGAAUGCGGGAAAUCCAACAGAGGAUUGAGCAUCA
B15: chr22:16590879:16592550:-|CDS|ENSG00000198445|control|control|control (ssRNA)
RNA: GGGAGUUCUACAGUCCGACGAUCCCAAGGAUUUCGAGCAGUGGCUGAGGUGGUGCUACAGCUCGUGACUGUAGAUGAAAUCGUAGUGGCCAAGAAAAGUCCCACACAUCAGGAGAUCUGGAAUCCUGACUCUAAGAAGACAAACAACAGAGGAUUGAGCAUCA
B16: chr12:48653210:48654175:-|three_prime_utr|ENSG00000139620|control|control|control (ssRNA)
RNA: GGGAGUUCUACAGUCCGACGAUCGCACCAUUGUCUCAGAGUGGAUUGGCUACUGCAAAUGGGAAGCCAGAACCCACUUCUAUUAGUUGAUAGUUUGGGGAACCAUUUUACUUUGGUGGAUUUAAAUUUCUCGUUCUUCAAAGACAACAGAGGAUUGAGCAUCA
B17: ENSG00000136451:be:win_901|CDS|ENSG00000136451|bound_else_gene|NA|bound_elsewhere_windowed (ssRNA)
RNA: GGGAGUUCUACAGUCCGACGAUCAUCACCAGCCACUUAAAGACUCAUGGGCAGAGCCAAAGUAUCAACUGUAAUACAUGUAAACAAGGCAUCAGUAAAACAUGCAUGAGUGAAGAGACCAGUAACCAAAAGCAGCAGCAGCAGCAACAGAGGAUUGAGCAUCA
B18: ENSG00000163697:stop:overlap|stop_codon|ENSG00000163697|stop_codon|NA|stop_codon (ssRNA)
RNA: GGGAGUUCUACAGUCCGACGAUCGAGGGGUCUUAUCCCUCAUUGACACUUUGAAACAGAAACGCCCUGUCACCGAAAUGCCAUAGCUGCACAUGCAAAAGGACUCGGCUAUUUACCUGAAGAUUGACUAGCUACACUAAAGAACAACAGAGGAUUGAGCAUCA
B19: chr6:52279506:52279615:-|CDS|ENSG00000112118|unk|FALSE|unique (ssRNA)
RNA: GGGAGUUCUACAGUCCGACGAUCUGAGUGUGGCAUUUUUAAGACAGGACGGAGAUCACUCUGUCCCUCUGUGUGCCUUUUUCUAGGAUGAGGAGAACAAUCCCCUUGAGACAGAAUAUGGCCUUUCUGUCUACAAGGAUCACCCAACAGAGGAUUGAGCAUCA
B20: chr11:61403655:61403707:-|3pUTR|ENSG00000149532|msi1_unk|total|mutant (ssRNA)
RNA: GGGAGUUCUACAGUCCGACGAUCUGAAGUAACCAGGAGGAAUGGGGAAAGAAGCAAGUUGGGCAGGAUAUGGCCUACUUCCACCGGCUUUUCUUUUUUCAGGUUUGAUGUAAGCAUGGGCUUACAUCCCCCAGGUACAUACUUCAACAGAGGAUUGAGCAUCA
B21: chr17:69546800:69546959:+|3pUTR|ENSG00000108984|unk|total|mutant (ssRNA)
RNA: GGGAGUUCUACAGUCCGACGAUCUCAACUUCACCGGACUUUUUUUUUUUUUAACUUUUCAAAUGGAAGGUGCAGUUUUCAAUCCGGCCUCUGAAAAUUUACACCGUCAGAUGGAAAAAUGCCAGAGUAAAAUCCCGGAAGAAGCAACAGAGGAUUGAGCAUCA
B22: ENSG00000005810:stop:overlap|stop_codon|ENSG00000005810|stop_codon|NA|stop_codon (ssRNA)
RNA: GGGAGUUCUACAGUCCGACGAUCCACCCACUGGGGAAGAGUUUGCUCUGGGAUGUGGAGUGUGCAGAAAUGCCCACACUUUUUAGAACACGCAGAUCCUUUGUCUACAGAGAGAAAAAUUGCCUUCAUCCCCCAAGAGGAUGCCAACAGAGGAUUGAGCAUCA

Where a chain is given by its changes, count along the chain named. The list shows a part of the results.

This assay has as its target T1, UNK ZnF1-6 (called full-length) (human, UniProt Q9C0B0 30-357).
T1 sequence: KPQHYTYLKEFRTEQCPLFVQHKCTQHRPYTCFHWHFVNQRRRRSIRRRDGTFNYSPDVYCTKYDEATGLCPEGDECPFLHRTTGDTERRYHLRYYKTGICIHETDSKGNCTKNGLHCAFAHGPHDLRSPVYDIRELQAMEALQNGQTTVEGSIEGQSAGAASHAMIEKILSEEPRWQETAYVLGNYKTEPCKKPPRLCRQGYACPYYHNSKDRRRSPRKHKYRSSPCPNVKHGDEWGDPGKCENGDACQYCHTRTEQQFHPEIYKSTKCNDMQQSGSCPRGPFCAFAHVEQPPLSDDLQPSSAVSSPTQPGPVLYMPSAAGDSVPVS
As to the kind of experiment: nsRBNS (natural sequence RNA bind-n-seq); RBNS binding buffer (assumed for nsRBNS): 25 mM Tris pH 7.5, 150 mM KCl, 3 mM MgCl2, 0.01% Triton X-100, 500 ug/ml BSA, 20 U/ml SUPERase-In, 4 C; UNK is unkempt and MSI1 is Musashi-1; names of the RNAs are library labels; protein concentration not given here; high values mean tight binding.
For the molecule B1, the binding signal was 0.84 enrichment R.
The same measure for B2: 0.484 enrichment R.
The same measure for B3: 0.852 enrichment R; for B4: 0.635 enrichment R.
The molecule B5 registered a binding signal of 0.416 enrichment R.
The same measure for B6: 0.721 enrichment R; for B7: 0.421 enrichment R.
For the molecule B8, the binding signal was 0.792 enrichment R.
B9 had a binding signal of 0.44 enrichment R.
The same measure for B10: 1.55 enrichment R.
The same measure for B11: 0.571 enrichment R; for B12: 0.483 enrichment R.
The same measure for B13: 0.485 enrichment R.
In the case of B14, the binding signal came to 0.633 enrichment R.
Consider B15, for which the binding signal came to 0.893 enrichment R.
On to B16, for which the binding signal amounted to 0.532 enrichment R.
The same measure for B17: 0.782 enrichment R.
The same measure for B18: 0.61 enrichment R.
The same measure for B19: 0.393 enrichment R; for B20: 0.551 enrichment R; for B21: 0.522 enrichment R.
For the molecule B22, the binding signal turned out to be 0.686 enrichment R.
